# Source: the supplement of paper PMC8728848
# The other results are listed elsewhere or left out.
# B1: Tamarinin (protein)
# chain: CDDSARAGNIVVYWGQGGSDNSEGSLKEACKSGHYNMIVLQQLIVYDDGRDPDLNLGAHCSDCTKLEEQIKYCQNKDIKILLQIGQVVPTQEDVKDVTKNLSEYLLKNFFSGKSGPLGEVYLNGIDIASVPEGNNLKFDELVEALNDSSTERRIYLSASPLCVYPDYYLNKAIQTEKLDFLFVQFFYQNPCIYTEGNPENLFEAMKTWTKNVPESMIFMALPATPNLDGYIPPRVLNKEILPAVSEASNFAGVMIFDRYFDRFRKYSSKIK
# Columns and labels:
# Assay in all cases: glycan array binding signal (z-score within array); higher = stronger binding
# Conditions in all cases: glycan notation: IUPAC condensed, linker removed
# [1] = target: Fuc(a1-2)Gal(b1-4)GlcNAc(b1-3)Gal(b1-4)GlcNAc(b1-3)Gal(b1-4)GlcNAc
# Procedure, shortened: (§1)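 The Consortium for Functional Glycomics database supplied 3228 glycan arrays, of which those lacking an available protein sequence were dropped. The binding signal, a within-array Z-score, was averaged across arrays of the same protein sequence and across linkers. Negative scores can be read as non-binding.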
# [2] = target: Fuc(a1-2)Gal(b1-4)GlcNAc(b1-3)GalNAc
# Procedure, shortened: as §1
# [3] = target: Fuc(a1-2)Gal(b1-4)GlcNAc(b1-3)[Fuc(a1-2)Gal(b1-4)GlcNAc(b1-6)]GalNAc
# Procedure, shortened: as §1
# [4] = target: Fuc(a1-2)Gal(b1-4)GlcNAc(b1-3)[Fuc(a1-3)[Gal(b1-4)]GlcNAc(b1-6)]Gal(b1-4)Glc
# Procedure, shortened: as §1
# [5] = target: Fuc(a1-2)Gal(b1-4)GlcNAc(b1-6)GalNAc
# Procedure, shortened: as §1
# [6] = target: Fuc(a1-2)Gal(b1-4)GlcNAc6S
# Procedure, shortened: as §1
# [7] = target: Fuc(a1-2)Gal(b1-4)[Fuc(a1-3)]GlcNAc
# Procedure, shortened: as §1
# [8] = target: Fuc(a1-2)Gal(b1-4)[Fuc(a1-3)]GlcNAc(b1-2)Man(a1-3)[Fuc(a1-2)Gal(b1-4)[Fuc(a1-3)]GlcNAc(b1-2)Man(a1-6)]Man(b1-4)GlcNAc(b1-4)[Fuc(a1-6)]GlcNAc
# Procedure, shortened: as §1
# [9] = target: Fuc(a1-2)Gal(b1-4)[Fuc(a1-3)]GlcNAc(b1-2)[Fuc(a1-2)Gal(b1-4)[Fuc(a1-3)]GlcNAc(b1-4)]Man(a1-3)[Fuc(a1-2)Gal(b1-4)[Fuc(a1-3)]GlcNAc(b1-2)Man(a1-6)]Man(b1-4)GlcNAc(b1-4)GlcNAc
# Procedure, shortened: as §1
# [10] = target: Fuc(a1-2)Gal(b1-4)[Fuc(a1-3)]GlcNAc(b1-3)Gal(b1-4)[Fuc(a1-3)]GlcNAc
# Procedure, shortened: as §1
# [11] = target: Fuc(a1-2)Gal(b1-4)[Fuc(a1-3)]GlcNAc(b1-3)Gal(b1-4)[Fuc(a1-3)]GlcNAc(b1-3)Gal(b1-4)[Fuc(a1-3)]GlcNAc
# Procedure, shortened: as §1
# [12] = target: Fuc(a1-2)Gal(b1-4)[Fuc(a1-3)]GlcNAc(b1-3)GalNAc
# Procedure, shortened: as §1
# [13] = target: Fuc(a1-2)Gal(b1-4)[Fuc(a1-3)]GlcNAc(b1-3)[Neu5Ac(a2-6)Gal(b1-4)GlcNAc(b1-6)]Gal(b1-4)Glc
# Procedure, shortened: as §1
# [14] = target: Fuc(a1-2)Gal3S(b1-4)GlcNAc
# Procedure, shortened: as §1
# [15] = target: Fuc(a1-2)Gal6S(b1-3)GlcNAc
# Procedure, shortened: as §1
# [16] = target: Fuc(a1-2)Gal6S(b1-3)GlcNAc6S
# Procedure, shortened: as §1
# Fuc(a1-2)Gal6S(b1-4)Glc = target: Fuc(a1-2)Gal6S(b1-4)Glc
# Procedure, shortened: as §1
# [17] = target: Fuc(a1-2)Gal6S(b1-4)Glc6S
# Procedure, shortened: as §1
# Fuc(a1-2)[Gal(a1-3)]Gal = target: Fuc(a1-2)[Gal(a1-3)]Gal
# Procedure, shortened: as §1
# [18] = target: Fuc(a1-2)[Gal(a1-3)]Gal(b1-3)GalNAc
# Procedure, shortened: as §1
# [19] = target: Fuc(a1-2)[Gal(a1-3)]Gal(b1-3)GalNAc(b1-3)Gal(a1-4)Gal(b1-4)Glc
# Procedure, shortened: as §1
# [20] = target: Fuc(a1-2)[Gal(a1-3)]Gal(b1-3)GlcNAc
# Procedure, shortened: as §1
# [21] = target: Fuc(a1-2)[Gal(a1-3)]Gal(b1-3)GlcNAc(b1-2)Man(a1-3)[Fuc(a1-2)[Gal(a1-3)]Gal(b1-3)GlcNAc(b1-2)Man(a1-6)]Man(b1-4)GlcNAc(b1-4)GlcNAc
# Procedure, shortened: as §1
# [22] = target: Fuc(a1-2)[Gal(a1-3)]Gal(b1-3)GlcNAc(b1-2)Man(a1-3)[Fuc(a1-2)[Gal(a1-3)]Gal(b1-3)GlcNAc(b1-2)Man(a1-6)]Man(b1-4)GlcNAc(b1-4)[Fuc(a1-6)]GlcNAc
# Procedure, shortened: as §1
# [23] = target: Fuc(a1-2)[Gal(a1-3)]Gal(b1-3)GlcNAc(b1-3)GalNAc
# Procedure, shortened: as §1
# [24] = target: Fuc(a1-2)[Gal(a1-3)]Gal(b1-3)GlcNAc(b1-6)GalNAc
# Procedure, shortened: as §1
# [25] = target: Fuc(a1-2)[Gal(a1-3)]Gal(b1-4)Glc
# Procedure, shortened: as §1
# [26] = target: Fuc(a1-2)[Gal(a1-3)]Gal(b1-4)GlcNAc
# Procedure, shortened: as §1
# [27] = target: Fuc(a1-2)[Gal(a1-3)]Gal(b1-4)GlcNAc(b1-2)Man
# Procedure, shortened: as §1
# [28] = target: Fuc(a1-2)[Gal(a1-3)]Gal(b1-4)GlcNAc(b1-2)Man(a1-3)[Fuc(a1-2)[Gal(a1-3)]Gal(b1-4)GlcNAc(b1-2)Man(a1-6)]Man(b1-4)GlcNAc(b1-4)GlcNAc
# Procedure, shortened: as §1
binder,measurement,setting,value
B1,glycan array binding signal (z-score),[1],-0.314
same,glycan array binding signal (z-score),[2],0.146
same,glycan array binding signal (z-score),[3],4.01
same,glycan array binding signal (z-score),[4],-0.458
same,glycan array binding signal (z-score),[5],0.378
same,glycan array binding signal (z-score),[6],-0.247
same,glycan array binding signal (z-score),[7],-0.291
same,glycan array binding signal (z-score),[8],-0.025
same,glycan array binding signal (z-score),[9],-0.167
same,glycan array binding signal (z-score),[10],-0.441
same,glycan array binding signal (z-score),[11],-0.292
same,glycan array binding signal (z-score),[12],0.311
same,glycan array binding signal (z-score),[13],-0.322
same,glycan array binding signal (z-score),[14],-0.442
same,glycan array binding signal (z-score),[15],-0.05
same,glycan array binding signal (z-score),[16],4.89
same,glycan array binding signal (z-score),Fuc(a1-2)Gal6S(b1-4)Glc,-0.164
same,glycan array binding signal (z-score),[17],0.044
same,glycan array binding signal (z-score),Fuc(a1-2)[Gal(a1-3)]Gal,-0.275
same,glycan array binding signal (z-score),[18],-0.318
same,glycan array binding signal (z-score),[19],-0.147
same,glycan array binding signal (z-score),[20],-0.121
same,glycan array binding signal (z-score),[21],0.037
same,glycan array binding signal (z-score),[22],1.46
same,glycan array binding signal (z-score),[23],0.28
same,glycan array binding signal (z-score),[24],-0.109
same,glycan array binding signal (z-score),[25],-0.32
same,glycan array binding signal (z-score),[26],-0.419
same,glycan array binding signal (z-score),[27],-0.154
same,glycan array binding signal (z-score),[28],-0.229
